# Assay results taken from PubChem BioAssay AID463173 (ICCB-Longwood Screening Facility, Harvard Medical School, 2010).
# In all, about 52,000 compounds went through this assay and about 1,700 (3.3%) were called active. No stated cut-off is given here; in the data, active means survival mostly below about 52% (no sharp cut-off); inactive means mostly above about 56%. Some of the results follow.
# System: Wild type
# Assay: growth inhibition of S. aureus wild type versus tarO mutant, primary screen, teichoic acid synthesis inhibitors, RN4220, OD600 (AID 463173)
# Conditions: S. aureus RN4220 wild type/DeltatarO growth, OD600, 18 h, active compounds read low, screened at 18.75 µg/mL (by protocol)
row,SMILES,survival
1,COC(=O)Cc1c(C)c2ccc3c(c2oc1=O)CN(Cc1ccc(Cl)cc1)CO3,inactive: 85%
2,CCOc1ccc(-n2cc(-c3ccccc3)c3c(NCc4ccccc4)ncnc32)cc1,inactive: 74%
3,OC1(C#Cc2ccccc2)CCCCC1,inactive: 111%
4,COCCn1c(SCc2ccccc2F)nc2c([nH]c3ccccc32)c1=O,inactive: 73%
5,Cc1cccc(CNC(=O)c2ccc(Cn3c(SCc4cccc(F)c4)nc4cccnc43)cc2)c1,inactive: 77%
6,COc1cc(CN(C(=O)c2ccc(C)cc2)C2CCS(=O)(=O)C2)cc(OC)c1OC (configuration not stated),inactive: 88%
7,COc1ccc(CNC(=O)C2CCN(S(=O)(=O)N3CCC(C)CC3)CC2)c(OC)c1,inactive: 82%
8,C/C(=N/NC(=O)Cc1cccs1)c1ccc(C)cc1,inactive: 110%
9,Cc1ccc(NS(=O)(=O)c2cn(C)c(C)n2)c(Br)c1,inactive: 88%
10,COc1cccc(NC(=O)C2CC(=O)N(c3ccc(Br)cc3)C2)c1 (configuration not stated),inactive: 63%
11,Ic1ccc(Nc2nc3nonc3nc2N/N=C\c2ccco2)cc1,inactive: 36%
12,CCCSc1ncc(Cl)c(C(=O)Nc2ccc(S(=O)(=O)N3CCCCC3C)cc2)n1 (configuration not stated),inactive: 82%
13,N#C/C(=C\c1cccc(F)c1)c1nc(-c2cc3ccccc3oc2=O)cs1,inactive: 77%
14,Cc1ccc2c(c1)c1c(c(=O)n(Cc3ccccc3)c(=O)n1Cc1cccc(F)c1)n2C,inactive: 68%
15,Cc1ccccc1OCc1nnc(SCc2cc(=O)c3cc(F)ccc3[nH]2)n1C,inactive: 69%
16,Cc1ccc(S(=O)(=O)c2cn(CC(=O)Nc3ccc4c(c3)OCO4)c3ccc(C)cc3c2=O)cc1,inactive: 75%
17,COc1ccc(-c2nc3ccccc3o2)cc1NC(=O)c1cc([N+](=O)[O-])ccc1N1CCOCC1,inactive: 59%
18,COc1ccc(-c2ccc(CCC(=O)O)n2-c2ccccc2C(F)(F)F)cc1,inactive: 129%
19,CCC1CN(CC(=O)NCc2cccc(Br)c2)c2ccccc2S1 (configuration not stated),inactive: 99%

row,SMILES,survival
1,NCC1NCCc2ccccc21 (configuration not stated),inactive: 105%
2,COC(=O)Cc1c(C)nc2nc(NCc3ccc(Br)cc3)[nH]n2c1=O,inactive: 90%
3,CCOc1ccc(-c2cc(C)n3nc(C(=O)Nc4ccc(C)c(C)c4)cc3n2)cc1,inactive: 67%
4,CC(Oc1ccccc1)C(=O)Nc1ccccc1C(=O)OCc1cc(=O)n2nc(C3CC3)sc2n1 (configuration not stated),inactive: 131%
5,CCc1nnc(SCC(=O)Nc2ccc(OC)c(OC)c2)c2cc3occc3n12,inactive: 81%
6,CCc1ccc(N2CC(C)Cn3c2nc2c3c(=O)n(CC(=O)O)c(=O)n2C)cc1 (configuration not stated),inactive: 68%
7,CCOC(=O)CN(Cc1ccccc1)C(C(=O)NC1CCCCC1)c1ccccc1 (configuration not stated),active: -2%
8,CCCCSc1nc(O)c(CCC(C)C)c(=O)[nH]1,inactive: 103%
9,Cc1ccccc1NC(=O)CCC(=O)N1CC(C)Sc2ccccc21 (configuration not stated),inactive: 92%
10,COc1cccc(CNC(=O)CSC2=Nc3ccccc3C3=NC(C(C)C)C(=O)N23)c1 (configuration not stated),inactive: 66%
11,O=C(Nc1noc2ccccc12)c1ccc(F)cc1,inactive: 78%
12,CCOC(=O)c1ccc(NC(=O)C2(S(=O)(=O)c3ccc(Cl)cc3)CC2)cc1,inactive: 91%
13,COc1ccc(CNC(=O)c2cc(=O)c3cc(C)ccc3o2)cc1,inactive: 83%
14,C=Cc1ccc(COc2ccc3oc(-c4ccccc4)c(C(=O)OCC)c3c2)cc1,inactive: 68%
15,Cc1cccc(C)c1NS(=O)(=O)c1ccc(NS(=O)(=O)c2ccc3c(c2)OCCO3)cc1,inactive: 140%
16,COc1ccc(C(=O)N(c2ccc(OC)cc2)S(=O)(=O)c2ccc3c(c2)n(C)c(=O)n3C)cc1,inactive: 74%
17,Cc1ccc(C)c(N2CCN(CCCNC(=O)c3ccc4nc(N5CCCCC5)sc4c3)CC2)c1,inactive: 76%
18,Cc1ccc(-c2nnc(Nc3ccccc3)c3ccccc23)cc1S(=O)(=O)NCc1nc2ccccc2[nH]1,inactive: 89%
19,Cc1cccc(N2CCN(C(=O)CCS(=O)(=O)c3ccc4c(c3)oc(=O)n4C)CC2)c1C,inactive: 85%

row,SMILES,survival
1,CCOC(=O)COc1ccc([N+](=O)[O-])cc1-c1ccnc2cc(-c3ccc(C)cc3)nn12,inactive: 67%
2,O=C(c1cc2ccc3cccnc3c2[nH]1)N1CCN(c2ccc(Cl)cc2)CC1,inactive: 91%
3,Cc1c(Cl)cccc1NC(=O)Cn1nnc2sc3c(c2c1=O)CCCC3,inactive: 90%
4,COc1ccccc1C(=O)Nc1cccc(C(=O)OCc2cc(=O)n3nc(C)sc3n2)c1,inactive: 73%
5,O=C(CN1C(=O)C2(SCC(=O)N2c2ccccc2)c2ccccc21)NCc1ccccc1 (configuration not stated),inactive: 84%
6,NC(=O)CSc1ncc2c(n1)-c1ccccc1N(Cc1ccc(Cl)cc1)S2(=O)=O,inactive: 75%
7,O=C(Nc1cccc(Cl)c1Cl)c1cc(S(=O)(=O)NCCc2ccccc2)ccc1F,inactive: 76%
8,CC(C)c1noc(-c2ccccc2OCC(=O)Nc2ccccc2[N+](=O)[O-])n1,inactive: 73%
9,CN1CCN(C2=NC(=O)/C(=C\C=C/c3ccccc3)S2)CC1,inactive: 118%
10,Cc1cc(Nc2ccc(Cl)cc2C)nc(-n2nc(C)cc2C)n1,inactive: 76%
11,CC(C)(C)c1ccccc1NC(=O)CSc1nc(-c2cccs2)cc(C(F)(F)F)n1,active: 10%
12,Cc1nn(CC(=O)Nc2cc(F)ccc2F)c(=O)c2cccn12,inactive: 85%
13,Cc1cc(C)n(-c2n[nH]c(=S)c3ccccc23)n1,inactive: 103%
14,O=C(NCc1ccc2c(c1)CCN2C(=O)c1ccc(F)cc1)c1ccco1,inactive: 111%
15,CCOc1ccc(C(=O)Nc2ccc(-n3nncc3-c3ccccc3)cc2)cc1OCC,inactive: 135%
16,CCC(=O)Nc1ccc2nc3c(=O)n(C)c(=O)n(C)c3nc2c1,inactive: 73%
17,Cc1c(CNC2CCCCC2)c(C(=O)O)c(C)n1Cc1ccc(F)cc1,inactive: 88%
18,CC1(C)CC(=O)C2=C(C1)OC1=C(C(=O)CC(C)(C)C1)C2c1ccc2c(c1)OCO2,inactive: 104%
19,CCN(C(=O)c1cc2c(=O)n3cccc(C)c3nc2s1)c1ccc(C)c(C)c1,inactive: 74%
